Measurements reported in the supplement of paper PMC3334620.
Over roughly 33,000 sequences, “E-score (-0.5 to 0.5)” has its median near -0.054; the highest 2% begin near 0.39. This is one part of the list.

Target: Ylr278c (UniProt Q05854)
Experiment: PBM E-score (8-mer binding enrichment) (E-score (-0.5 to 0.5)); higher = stronger / more preferred TF binding; most listed sequences are background and not binding sites
Conditions: protein concentration: 200 nM; construct: GST-DNA-binding domain
Procedure: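 Universal 'all 10-mer' protein binding microarrays (Agilent AMADID 015681) probed with GST-tagged S. cerevisiae TFs (full-length or DBD) made by in vitro transcription/translation (PURExpress), about 100-200 nM. Bound TF was detected with fluorescent anti-GST. Each ungapped 8-mer (which stands for itself and its reverse complement) is scored by the PBM enrichment score (E-score), a modified Wilcoxon-Mann-Whitney statistic from -0.5 to +0.5, computed with the Universal PBM Analysis Suite. Scale: above 0.35 generally sequence-specific binding.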

Sequence | PBM E-score
ACTTCTCC | 0.283
ATACCTAT | -0.174
CAAGCCTG | -0.242
GCGTTCAC | 0.011
ATGTTGCC | -0.036
ACTACAGT | -0.22
TCATGTAA | -0.135
AGCGGCCC | 0.0789
AAATGCGT | -0.0671
GAGTCTGA | -0.147
ATTTGTAC | -0.138
CATAGACA | -0.148
AAGATTAA | -0.069
GAAACCTA | -0.184
GACCCTTA | -0.173
CATTCCTC | 0.0106
AAGCTACA | -0.184
ATGCTTAA | 0.0745
CATCACGC | 0.0744
AATTGTAA | -0.172
ACAGGGAA | -0.118
AGCCCAGC | -0.0788
AGCTAATC | -0.0907
TAGCCAGA | -0.21
GTCCACGA | -0.17

Sequence | PBM E-score
GGAGCTAC | 0.169
ACGCTCGC | -0.194
AGAGTCTG | -0.336
TGTTACAA | -0.0929
GTACTCGA | -0.147
GAGATCTA | -0.177
CATATGAA | -0.00398
GCCCACCA | -0.21
CCCAAGCG | 0.0327
AACTTGTA | -0.0794
ATTAACAC | 0.0305
CTTTGGTA | -0.0286
AGGAACGG | 0.0984
CTTAAAGA | -0.114
CATAACAG | -0.328
GAGTGTCA | -0.0234
AGAGTGCA | -0.142
TAGACGAA | -0.3
AAGAACCC | -0.0398
ACCATAAA | -0.0424
CCCAATAC | 0.00541
GGAGTGTA | 0.127
ATTTACCC | 0.00209
CAGGGTCC | -0.0196
CAGATTAC | -0.0164

Sequence | PBM E-score
ACGATGTA | -0.201
CGATGATA | 0.0943
CGAGCGTA | -0.0554
CATAGCTC | -0.0775
ACAGTGGA | -0.077
CTTAATAC | -0.135
ACCTCTCC | -0.00805
AAAGATCG | -0.121
CGTCTCAG | -0.155
GAAGGGAA | -0.124
AACTCGAG | -0.121
GAATTTGA | 0.116
TAAGACTA | -0.2
GAGAATCC | 0.147
CAGGGAAG | -0.123
CGGAGAAC | 0.445
TACGCTCA | -0.223
GCGTCCAA | -0.175
GTGATAAA | -0.122
TGGCGAAA | -0.00886
TAGCACAA | -0.115
CTTCAATA | -0.0693
AACAGTGA | -0.066
GTACAGTA | -0.0759
AGTCACAG | -0.326

Sequence | PBM E-score
CCCCCGCA | 0.0425
CAGAAAGG | -0.125
TTACGCAA | -0.0173
CTGTGTTC | -0.0708
AACGCATA | -0.003
CAATACCC | 0.176
TCCGAAGA | 0.433
CGATGGCA | 0.0143
CGCAATAG | -0.0881
ACCGACGG | 0.323
ATCCGCAT | 0.263
CTAGAACC | -0.119
GGGCCGAA | 0.198
AAACTTGT | -0.129
CGATCTCA | -0.00974
CCCCGAGG | 0.245
CGGTTAGA | 0.00791
AACGCCCG | 0.279
CATGAAGC | 0.116
ACGTTCTG | -0.141
ACATTGCA | -0.0533
TATGTTGA | -0.0826
CCAGGACA | -0.0615
GACGTCCA | 0.0178
GATGGTCC | 0.103

Sequence | PBM E-score
ACGCAATA | -0.0667
GCTCGAAC | -0.194
AGTCAAGG | -0.251
ACACTTAC | -0.112
GGCTCCAC | -0.151
GCGAGGAA | 0.198
AACAGAGG | -0.192
ACTCACAC | -0.0834
GTCCAAAC | -0.168
GTACCATA | -0.222
AGAGGTTG | -0.0914
AAATAGAC | 0.00956
CGTACGTC | -0.182
ATAAAGCG | 0.0368
AGTTCGCG | 0.133
AAGCAACA | -0.135
CAGGGTGC | -0.0626
CCGTCCGC | 0.326
GATGAGAA | -0.264
CTTCTACA | -0.212
CGCCAACA | 0.00656
CTTGTAAA | -0.0236
GCAGGGAA | 0.0339
AAAACCGT | -0.113
AGCTTCCT | -0.143

Sequence | PBM E-score
AATCGGAA | 0.416
GGGGAGGA | 0.0353
AGTAATGG | -0.146
ATGGTTGG | 0.00201
AGGACCCG | 0.158
ATTTCGTG | -0.131
GAACCTTA | 0.147
CTAACAGC | 0.0442
ATAGCCGA | 0.181
TCGTCCCA | -0.165
AACGCAGT | -0.0888
ATTTGTAA | -0.112
CAGCCCTA | -0.00615
AATATATA | 0.0198
GGGTTCAC | 0.0617
ATGCTGTA | -0.185
GAGTATCC | 0.123
CATAGACC | -0.0979
GGGATCTA | 0.0224
ATGATCAG | -0.218
GAGTATCA | 0.0352
TCGCATCA | 0.145
CAGTAGTA | -0.231
ATGTGAAA | -0.178
ACCACCAA | -0.0184

Sequence | PBM E-score
AAGTGCTC | -0.223
CTCAGTGA | -0.34
GCTGTAGA | -0.161
ACAATTCT | -0.27
CGCGTTGA | -0.089
CCGAAGAC | 0.259
CTCTAGCC | -0.102
ATCCAGGC | -0.16
GGAAGCCC | 0.216
CTCGCCGC | 0.13
CGTAGAGA | -0.28
AACCCGAG | 0.264
CGATATAC | 0.156
GGTCCCTA | -0.146
ACCGGAGA | 0.475
GCCCTCAA | -0.106
CTGTCGTA | -0.124
GTAATGAC | -0.0287
GTTTTACA | -0.0511
CTCTATTC | 0.0786
ATCCACGC | -0.225
ACGTGCTA | -0.242
CACTGCGA | -0.0532
CTTCTCAA | -0.149
AGGAGACA | -0.0751

Sequence | PBM E-score
CTGGGTTC | -0.0115
GTAAGAGA | -0.19
ACCTTTAT | -0.214
GCGTACCC | -0.0941
CAATTCGC | 0.131
GCATCGGC | 0.308
GGCGGAGA | 0.444
GTCTAAGA | -0.118
GTAGGTTA | -0.123
GGCCCCGA | 0.234
GAACCAGA | -0.267
AGATAGAG | -0.145
CAAGTTCC | 0.221
ACGCATCA | -0.0248
CAGTTGAA | -0.229
ACTGTAAC | -0.204
AAGTAGCG | -0.155
CGGTCAAG | 0.189
AGTTTTAC | 0.00603
CTTGACCA | -0.396
CGCGTTGC | 0.122
ATGGCACC | 0.014
CGGGTGCC | 0.154
TGTTTGAA | -0.199
AGAATTCG | -0.0246

Sequence | PBM E-score
GGGGGTCA | -0.159
ACGTGGTG | -0.073
CGGCTAAA | 0.236
GACGCGTC | -0.292
AAAAAGAT | -0.0389
AGGAAGTA | 0.126
CTCCCCGC | 0.288
AACATGCG | -0.129
CCTAACGA | -0.0685
GTTCCGTA | 0.264
ACTAGAAG | -0.121
AGGATGCG | -0.177
AAACACTA | -0.182
GTATACCA | -0.227
AAAAGGGA | -0.277
AGGCGCCC | -0.132
CGACAGTA | 0.103
AACACACC | 0.0611
ATATTGCC | 0.0162
